Sequences with one replicate were seen in a single cluster, so their values are uncertain.
The sequences below were run on ATP (assay: switch fluorescence ratio, 500 uM ATP over buffer (Cy3 cluster intensity, sum of 5 cycles each) (fold (ratio)); higher = stronger signal-on switching upon ATP binding; sequences stand for … in TCGTCGGCAGCGTCAGATGTGTATAAGAGACAGTTTTTTTTTTTTTTTTTTTTTTTTT…TC). Conditions: aptamer strand: ATP DNA aptamer (quencher-CACCTGGGGGAGTATTGCGGAGGAAGG + anchor), 100 nM annealed; ATP concentration: 500 uM; one replicate.
Method in brief: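 Cy3-labelled switching-strand clusters on a modified Illumina MiSeq flow-cell were annealed to 100 nM quencher-labelled ATP aptamer, imaged in selection buffer, then imaged after 15 min with 500 uM ATP at 22 °C. Five buffer/ATP cycles ran, with NaOH stripping and re-annealing between them. The fluorescence ratio is summed target-cycle over summed buffer-cycle Cy3 intensity per cluster, averaged per switch-domain sequence. Clusters outside 100-1000 RFU were excluded.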
AAAGCCCAAG showed a switch fluorescence ratio of 1.12. Work on TTTCCGGTTC yielded a switch fluorescence ratio of 1.06. For CCGCTGCGGC, the switch fluorescence ratio was 1.66. CGTCTTCGAG gave a switch fluorescence ratio of 0.991. CGCGATAATA was tested, and the switch fluorescence ratio was 1.14. CTTAACTCGA was tested, and the switch fluorescence ratio was 0.971. GGCGCTGTAT was tested, and the switch fluorescence ratio was 0.995. TGAACGGGAT showed a switch fluorescence ratio of 1. CCGGCAAACG was tested, and the switch fluorescence ratio was 2.39. Sequence AGGTGGACGC has a switch fluorescence ratio of 1.03. ACTTGACTCC was tested, and the switch fluorescence ratio was 1.35. TTGGTGATCC gave a switch fluorescence ratio of 0.985. Work on CTCTTACTTC yielded a switch fluorescence ratio of 1.04. CCACTATTTC was tested, and the switch fluorescence ratio was 1.06. GAATGGGCTG gave a switch fluorescence ratio of 1.01. Work on ATCTTGCTGG yielded a switch fluorescence ratio of 0.996. ATGCTGATTG showed a switch fluorescence ratio of 1. With ATATTCGAAG the switch fluorescence ratio was 0.987. For GTCATTCACT, the switch fluorescence ratio was 1.16. Work on GTGCCTTTTG yielded a switch fluorescence ratio of 0.99. TGTTGGGAAG was tested, and the switch fluorescence ratio was 1.47. CACTTAAGGG showed a switch fluorescence ratio of 1.02. AGTGGGACGA showed a switch fluorescence ratio of 1.04. CGGGGACCAT showed a switch fluorescence ratio of 1.02. Work on AGATATGCTT yielded a switch fluorescence ratio of 0.964. CGGGTGCTTC was tested, and the switch fluorescence ratio was 0.975. For AATTGATGCA, the switch fluorescence ratio was 1.09. GGCCCCCTAC showed a switch fluorescence ratio of 1.13. TTAGGATGGT showed a switch fluorescence ratio of 0.975. Work on CGTCGAGGAG yielded a switch fluorescence ratio of 0.962. AAGACGGGGG showed a switch fluorescence ratio of 0.983. AGGGCAGGTT showed a switch fluorescence ratio of 2.61. Sequence CAGCTGAA has a switch fluorescence ratio of 1.03. In the case of CATAACGATG, the switch fluorescence ratio is reported as 1.01. In the case of ATACTCTAAT, the switch fluorescence ratio is reported as 1.06. In the case of CGATCTAACC, the switch fluorescence ratio is reported as 1.02. Work on TCCATTAAAG yielded a switch fluorescence ratio of 1. In the case of GACAGCGCCG, the switch fluorescence ratio is reported as 0.994. CGCATACGTA was tested, and the switch fluorescence ratio was 1.34. CCAAGGCCGG showed a switch fluorescence ratio of 1. For GCTTTGGCAA, the switch fluorescence ratio was 0.982. GCATTGTCGT gave a switch fluorescence ratio of 1.01. AAAAGAACA gave a switch fluorescence ratio of 0.978. Work on AACCGACTGT yielded a switch fluorescence ratio of 1.13. In the case of TTGCGAGTGC, the switch fluorescence ratio is reported as 1.08. AGTAGTTACG showed a switch fluorescence ratio of 1.1. ATTATGTGTT showed a switch fluorescence ratio of 1.03. In the case of CACGTATCTT, the switch fluorescence ratio is reported as 1.19. In the case of TAAACGCA, the switch fluorescence ratio is reported as 1.12. TAGTGGCCTC was tested, and the switch fluorescence ratio was 1.02. Sequence CAATCGATC has a switch fluorescence ratio of 0.981. TTTCACGCCT showed a switch fluorescence ratio of 1.23. AGAGCCAATA gave a switch fluorescence ratio of 1.16. For TAGATACGTT, the switch fluorescence ratio was 1.02. TTTGTGCTCT gave a switch fluorescence ratio of 0.984. For AAAAGCCTAT, the switch fluorescence ratio was 0.99. Sequence CACACGGCCG has a switch fluorescence ratio of 0.991. Work on GTAAAACTCT yielded a switch fluorescence ratio of 1.03. Work on AGGGTGCCTG yielded a switch fluorescence ratio of 1.06. Sequence CACAAGATAA has a switch fluorescence ratio of 1.05. AGAAGAGAA showed a switch fluorescence ratio of 0.98. In the case of AGGAGAATAC, the switch fluorescence ratio is reported as 1.2. Work on TCCGGCGTGT yielded a switch fluorescence ratio of 1.05. Work on AGGAGATCTC yielded a switch fluorescence ratio of 1.06. GTGAGACA showed a switch fluorescence ratio of 1.01. GTTGCTCAG was tested, and the switch fluorescence ratio was 1. Sequence TCGTGGGACG has a switch fluorescence ratio of 1.01. Work on TATGAGTGCA yielded a switch fluorescence ratio of 1.05. GTTTGGACGC was tested, and the switch fluorescence ratio was 1.01. AATAAGTTCC showed a switch fluorescence ratio of 1.1. CGTCAGGTGG showed a switch fluorescence ratio of 1.1. AATATCCTAA was tested, and the switch fluorescence ratio was 0.982. With TCGCAGACCG the switch fluorescence ratio was 1.11. In the case of GAACTATCCG, the switch fluorescence ratio is reported as 1.03. GGGCGGTGGC gave a switch fluorescence ratio of 0.977. Work on GGTAAATGAA yielded a switch fluorescence ratio of 1.01. Sequence TGTCGTCCTA has a switch fluorescence ratio of 0.991. In the case of TACTTTTCT, the switch fluorescence ratio is reported as 1. In the case of TAATCCGGAA, the switch fluorescence ratio is reported as 2.23. CTTGAGAGGT gave a switch fluorescence ratio of 0.983. Sequence AGGGCAGCC has a switch fluorescence ratio of 0.983. For CACTTAGATA, the switch fluorescence ratio was 1.02. For CACCTTTGGC, the switch fluorescence ratio was 1.08. With GTCTATGCGA the switch fluorescence ratio was 1.04. GGGCTACTAA showed a switch fluorescence ratio of 1.01. For TCGTAAGGCT, the switch fluorescence ratio was 1.01. ACCCACGCCG was tested, and the switch fluorescence ratio was 1.19. Sequence TTAATGGTGT has a switch fluorescence ratio of 1.05. Sequence CAATGTCGTG has a switch fluorescence ratio of 0.975. In the case of TTACTCATAA, the switch fluorescence ratio is reported as 1.09. Sequence GCCTGTTTCG has a switch fluorescence ratio of 1.06. Sequence GTTGTCGACG has a switch fluorescence ratio of 1.01. Sequence TTAACCGCT has a switch fluorescence ratio of 1.1. AAAAGATGGT gave a switch fluorescence ratio of 1.01. CCACGAGTGC was tested, and the switch fluorescence ratio was 1.04. CGGAGGTCCG gave a switch fluorescence ratio of 1.06. Work on ATCCGGTATA yielded a switch fluorescence ratio of 1.07. CCATGTTTGA showed a switch fluorescence ratio of 0.991. In the case of GCGGGGCATT, the switch fluorescence ratio is reported as 0.992. CAGCGCGAAG gave a switch fluorescence ratio of 1.04.

Reference: the supplement of paper PMC10126150
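Also: ATP exposure 15 min at 22 °C before imaging.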
